# Test results: PubChem BioAssay AID1468 (National Center for Advancing Translational Sciences (NCATS), 2008)
# The campaign covered roughly 280,000 compounds. About 1,100 (0.39%) were called active. The inconclusive results got no clear call from the source; some entries with a clear call stand among them for comparison. Calls follow the shape of the dose curve; as a rule, active = well fitted inhibition curve with a large enough effect; inconclusive = small, poorly fitted or top-dose-only effect, or effect the other way; inactive = flat fitted curve, though single readings scatter. No potency is given beside an inconclusive call; the fits are too rough.
# Biological target: Microtubule-associated protein tau (Homo sapiens) (UniProt P10636)
# Experiment: qHTS for Inhibitors of Tau Fibril Formation, Fluorescence Polarization; also: nearly all actives have a fitted effect of over 55% in size
# Details: K18 P301L tau heparin fibrillization, Alexa594 FP, 6 h; series mostly up to 57.7 µM
# Procedure, shortened: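 Compound effects on tau fibrillization are measured by Alexa 594 fluorescence polarization (ex 555, em 632 nm). K18 P301L tau is used at 15 uM with 0.24 uM labeled tracer, and 20 uM heparin induces aggregation over 6 hr at 37 C.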
# Potency is read from the fitted curve at half-maximal effect; tags tell the direction and shape of the fitted curve.
# Sequence of UniProt P10636 (P10636 whole entry, looked up): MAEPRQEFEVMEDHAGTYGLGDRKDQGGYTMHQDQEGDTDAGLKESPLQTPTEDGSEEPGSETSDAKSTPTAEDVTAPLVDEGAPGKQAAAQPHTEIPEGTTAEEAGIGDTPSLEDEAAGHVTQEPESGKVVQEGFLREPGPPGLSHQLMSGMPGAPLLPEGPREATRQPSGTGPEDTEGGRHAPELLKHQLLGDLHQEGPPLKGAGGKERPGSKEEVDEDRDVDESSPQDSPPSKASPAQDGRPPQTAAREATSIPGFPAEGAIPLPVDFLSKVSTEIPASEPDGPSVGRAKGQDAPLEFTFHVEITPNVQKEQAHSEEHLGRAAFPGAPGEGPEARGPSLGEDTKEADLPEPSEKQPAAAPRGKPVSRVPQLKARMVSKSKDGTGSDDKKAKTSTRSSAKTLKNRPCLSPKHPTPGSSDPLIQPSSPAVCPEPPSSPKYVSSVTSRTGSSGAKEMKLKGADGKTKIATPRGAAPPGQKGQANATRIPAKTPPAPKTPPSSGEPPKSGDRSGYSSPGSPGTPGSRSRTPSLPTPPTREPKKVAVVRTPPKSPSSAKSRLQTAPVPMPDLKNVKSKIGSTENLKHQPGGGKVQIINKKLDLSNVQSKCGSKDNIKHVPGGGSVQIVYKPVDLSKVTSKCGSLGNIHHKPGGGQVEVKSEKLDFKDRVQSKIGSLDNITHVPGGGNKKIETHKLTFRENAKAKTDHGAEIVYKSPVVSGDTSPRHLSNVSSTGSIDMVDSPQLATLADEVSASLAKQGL
row,SMILES,Potency
1,CSc1ncccc1C(=O)OCC(=O)Nc1cc(C(F)(F)F)ccc1N1CCOCC1,"inconclusive [inhibitor, single point]"
2,Cc1ccc(S(=O)(=O)Nc2cc(=O)[nH]c(SCC(=O)Nc3cccc(C)c3)n2)cc1,active: 15.8 µM
3,COC(=O)Cc1c[nH]c2cccc(OCC(O)CN(Cc3ccc([N+](=O)[O-])cc3)C(C)(C)C)c12 (configuration not stated),"inconclusive [activator, partial curve, poor fit]"
4,CC(=O)O[C@H]1CC(C)(C)C(=C=C/C(C)=C/C=C/C(C)=C/C=C/C=C(C)/C=C/C=C(\C)C(=O)C[C@@]23O[C@]2(C)C[C@@H](O)CC3(C)C)[C@](C)(O)C1,"inconclusive [inhibitor, single point]"
5,COc1cccc(C2=CC(c3ccccc3F)n3ncc(C(=O)Nc4ccc(F)cc4)c3N2)c1 (configuration not stated),"inconclusive [inhibitor, single point]"
6,Cc1cccc(N2NC(=O)/C(=C/c3ccc(-c4ccc(Cl)c(C(=O)O)c4)o3)C2=O)c1,"inconclusive [inhibitor, single point]"
7,COCCN(C(=S)Nc1ccc(C)cc1)C(C)c1ccco1 (configuration not stated),inactive
8,COc1ccccc1C(=O)NC1(C(F)(F)F)NC(=O)N(CCc2ccccc2)C1=O (configuration not stated),"inconclusive [activator, single point]"
9,CCOCCCNC(=O)C(c1ccc(C)cc1)N(Cc1ccc2c(c1)OCO2)C(=O)c1ccccc1O (configuration not stated),inactive
10,O=C(O)c1ccc(C(=O)c2ccc3c(c2)C(=O)N(CC2CCCO2)C3=O)cc1 (configuration not stated),inactive
11,CC(=O)c1cccc(NC(=O)c2ccc3c(c2)CCN3S(=O)(=O)c2ccccc2)c1,"inconclusive [inhibitor, partial curve]"
12,COc1ccccc1CNc1ncnc2ccc(-c3ccccc3CN(C)C)cc12,inactive
13,COc1ccc(CCNC(=O)C(C)n2nc(C)c3sc4ccccc4c3c2=O)cc1OC (configuration not stated),"inconclusive [inhibitor, partial curve, poor fit]"
14,COCCNC(=S)Nc1cc(S(=O)(=O)N2CCOCC2)ccc1N1CCCCC1,"inconclusive [inhibitor, single point]"
15,Cc1ccc(-c2cc(-c3ccccc3)nc(Cl)n2)cc1,"inconclusive [inhibitor, partial curve, poor fit]"
16,COCCNC(=O)C(=O)Nc1ccc2nc3n(c(=O)c2c1)CCCCC3,inactive
17,O=C(c1ccc(Cn2c(=S)[nH]c3ccc(Br)cc3c2=O)cc1)N1CCN(C2CCCCC2)CC1,"inconclusive [inhibitor, partial curve]"
